Hit rate of the full screen: of about 150,000 compounds, about 540 (0.36%) showed an effect of 50% or more. The list shows a part of the results.
System: Plasmodium falciparum
Experiment: Primary screen in NF54 nanoGlo assay, in single point, at 2uM, 72h; a lower Z score goes with more inhibition
Assay type: functional, Erythrocyte
Details: timepoint 72 hour

Row | SMILES | % Inhibition [%] | Z score
1 | Cc1cc(C)c(C#N)c(N[C@H]2CCS(=O)(=O)C2)n1 | -19 | 1.85
2 | CC(NC(=O)NC(C)(C)C)C1CCCN(C(=O)c2c[nH]c(C#N)c2)C1 (stereo not drawn) | 32 | -3.59
3 | COc1ccc(CNC(=O)CN2CCn3nc(-c4ccc(Cl)cc4)cc3C2=O)c(OC)c1 | -8 | 1.12
4 | COc1ccc(Cl)cc1NC(=O)C1=C(C)NC(=O)N[C@H]1c1cccc2ccccc12 | 4 | -0.5
5 | Cc1ncsc1COC(=O)c1ccnc(N(C)C)c1 | 40 | -5.4
6 | CC[C@H]1COCCN1C(=O)c1ccc(-n2cnnc2)nc1 | 14 | -1.94
7 | CN(Cc1cnc2ccccc2n1)C(=O)NCC1(CN2CCOCC2)CC1 | 2 | -0.26
8 | CN(CC(=O)N1CCC[C@H]1c1ccc(Cl)c(Cl)c1)Cc1cccs1 | -12 | 1.37
9 | CC[C@H](NC(=O)c1ccn(C)c1C)c1cccc(C)n1 | 1 | -0.17
10 | NC(=O)CCN1CCN([C@H](C#Cc2ccc(F)cc2)Cc2ccccc2)CC1 | -3 | 0.44
11 | CC(NC(=O)CC1CCCO1)c1ccncc1 (stereo not drawn) | -17 | 2.46
12 | Cc1ccc(-c2csc3ncnc(N4CCNC(=O)CC4)c23)cc1 | -7 | 0.88
13 | CCN(C(=O)NCc1nnc2n1CCC2)[C@@H](C)c1cccc(OC)c1 | 0 | 0.01
14 | COc1ccc(-c2nc(-c3ccc4c(c3)ncn4CCC(=O)N3CCCCCC3)no2)c(OC)c1 | -22 | 2.91
15 | Cc1nc(CC(=O)N(Cc2ccccc2)CC2(O)CCCC2)cs1 | -16 | 1.46
16 | CCN1CCCCC1C(=O)NC(C)CS(=O)(=O)CC (stereo not drawn) | -8 | 1.61
17 | COc1ccccc1NC(=O)c1cc(-c2cc(C)sc2C)nc2onc(C)c12 | -6 | 0.85
18 | Cc1nsc(C)c1C(=O)Nc1ncc(Br)cc1CO | -19 | 2.11
19 | Cc1onc(-c2ccccc2Cl)c1C(=O)NC1CCCC(OC(=O)Nc2ccccc2)C1 (stereo not drawn) | -11 | 1.29
20 | CC(=O)c1cc(-c2cc(O)cc(CC[C@H]3CCCCN3)c2)ccc1O | 78 | -7.86
21 | Cc1c(Cl)cccc1NC(=O)[C@H]1CC(=O)N(c2ccc(OCc3ccccc3)cc2)C1 | 32 | -4.19

Row | SMILES | % Inhibition [%] | Z score
22 | COc1nn(C)cc1C(=O)Nc1cccc(N2CCCC2=O)c1 | -8 | 1.18
23 | CC(C)c1ccc(C(=O)N2C[C@@H]3Oc4c(F)ccc(F)c4O[C@@H]3C2)cn1 | 1 | -0.27
24 | CCCC(C)(CO)NCC1CC=CCC1 (stereo not drawn) | -8 | 1.46
25 | CCc1ccc(CCNC(=O)C[C@H](O)C2CC2)cc1 | 2 | -0.31
26 | CN(C(=O)c1ccc(-c2ncon2)cc1)[C@H]1CCCN(Cc2ccccc2)C1 | -3 | 0.38
27 | O=C(Nc1cccc2cccnc12)N1CC[S+]([O-])CC1 | -20 | 1.81
28 | Cc1ccn2c(=O)c(C(=O)NCC(C)C)c(O)nc2c1 | 1 | -0.09
29 | COc1ccc(S(=O)(=O)N2CCN(c3cc(C)nc(N4CCOCC4)n3)CC2)cc1 | -5 | 0.93
30 | CCC[C@]1(CO)CCCN(CC(=O)NC(C)(C)CC)C1 | 4 | -0.58
31 | COC[C@H](Nc1cc(C)nc(-c2ccccc2)n1)c1ccccn1 | -1 | 0.16
32 | COc1ccc(CNc2nnc(-c3nnc(C)o3)c3ccccc23)cc1 | -10 | 1.71
33 | CN1CCC[C@H](N(C)C(=O)c2ccc(NCc3nnn(C(C)(C)C)n3)cc2)C1 | -3 | 0.43
34 | O=C(NCc1cncc(-c2cccs2)c1)c1c(F)cccc1F | 10 | -1.43
35 | CCOc1nnc(CN[C@H]2CCO[C@@H]2c2c(C)nn(C)c2C)s1 | -9 | 1.03
36 | CN1CCn2nc(C(=O)N3CCC(O)(c4ccccn4)CC3)cc2C1 | -5 | 0.78
37 | O=C(O)C1CC(Oc2cccc(Cl)c2)CN1 (stereo not drawn) | 0 | 0.05
38 | CC(C)n1ccc(CN[C@](C)(C(N)=O)C(C)C)n1 | -9 | 1.45
39 | CC(=O)NC1CN(C(=O)N[C@@H](C)c2c(C)cccc2C)C1 | -7 | 0.59
40 | CC1(C)CN(Cc2cnn(-c3ccccc3)c2)CC[C@@]1(O)CN1CCOCC1 | -18 | 1.75
41 | Cc1ccc(C(=O)CCc2nc3ccccc3s2)cc1 | 1 | -0.11
42 | CCc1ncnc(O[C@H]2CCN(S(=O)(=O)c3c(F)cccc3F)C2)c1F | -5 | 0.8

Row | SMILES | % Inhibition [%] | Z score
43 | CCC(NC(=O)c1cn(CC)nc1C1CCOCC1)C(O)C(C)C (stereo not drawn) | -5 | 0.97
44 | C=CCOc1cc(C(=O)N2CCCCC2)cc2occc12 | 32 | -4.34
45 | Cc1nc2c(sc(=S)n2Cc2ccco2)c(=O)n1CC(=O)Nc1cccc(Cl)c1 | -13 | 1.65
46 | COc1cccc(C2=NS(=O)(=O)N(C)C(C(=O)N3CCN(C(=O)C(C)(C)C)CC3)=C2)c1 | -9 | 1.7
47 | CCC[C@H](NC(=O)c1ccc(C)n1C)C(=O)N1CCc2sccc2C1 | -2 | 0.26
48 | Cc1ccc(CCNC(=O)c2ccc3c(c2)nc2n3CC[C@H](C)C2)cc1 | -9 | 1.5
49 | Cc1nccc([C@H](C)NC(=O)c2cc(=O)[nH]c3ncn(C)c23)n1 | 0 | 0.05
50 | N#Cc1nc(C2CC2)oc1N1CCN(C(=O)Cc2ccsc2)CC1 | -8 | 0.7
51 | CC1CC(c2ccccc2F)N(c2nccc(C(F)(F)F)n2)C1 (stereo not drawn) | -1 | 0.15
52 | CCN1CCC[C@H](N2CCC(CCC(=O)OC)CC2)C1 | -5 | 0.71
53 | CC(C)(C)[C@@H]1CN(C(=O)CCc2cncnc2)CCO1 | 3 | -0.35
54 | Cc1nc(CC(=O)N[C@H]2COCC[C@@H]2OCc2ccccn2)cs1 | -5 | 0.96
55 | CCc1nc(N[C@@H]2COC3(CCCC3)C2)ncc1C | -8 | 1.56
56 | CCOC1CC(NC(=O)Cc2c(C)noc2Cl)C12CCCC2 (stereo not drawn) | 1 | -0.12
57 | CCN(C(=O)Nc1ccc(OCC(F)(F)F)c(C)c1)C1CCCC1 | 9 | -1.45
58 | O=C(Nc1ccc(C(F)(F)F)c(F)c1)c1cc(C2CC2)[nH]c(=O)c1 | -14 | 1.47
59 | Cc1c(C(=O)N(C)C[C@H]2COCCO2)cnn1-c1ncc2c(n1)-c1ccccc1CCC2 | 6 | -0.8
60 | CCc1cc(C(=O)N[C@H]2CCN(C(C)C)C2=O)[nH]n1 | -3 | 0.65
61 | O=C(NCc1cccnc1)[C@]1(F)CCCN(Cc2ccc(Cl)cc2)C1 | -4 | 0.72
62 | CCCc1noc(-c2oc3cc(OC)ccc3c2C)n1 | -4 | 0.68
63 | COc1ccc(NC(=O)CN2C(=O)N[C@@](C)(C3CCCCC3)C2=O)c(OC)c1 | -1 | 0.12

Row | SMILES | % Inhibition [%] | Z score
64 | Cc1cc(C)c(CNC(=O)c2ccc3c(c2)OCCO3)c(=O)[nH]1 | -1 | 0.16
65 | Cc1ccc2c(=O)c(C(=O)N3CCOCC3)cn(CC(=O)NC3CCCCC3)c2n1 | -4 | 0.6
66 | O=C(Cn1cnc2ccccc2c1=O)Nc1nnc(C2CCCC2)s1 | -16 | 1.95
67 | CC(C)n1ccc(C(=O)NCc2cccc(-c3nnn[nH]3)c2)n1 | -12 | 2.21
68 | Nc1cc(N2CCN(Cc3ccc4cccc(Cl)c4n3)CC2)nc(N)n1 | -9 | 1.17
69 | CC(C)CCc1nc(N2CCCN(S(=O)(=O)c3ccc(Br)cc3)CC2)c2cnn(-c3cccc(Cl)c3)c2n1 | 5 | -0.71
70 | Cc1ccc(Cn2nc(C(=O)Nc3cc(C)ns3)ccc2=O)cc1 | -1 | 0.14
71 | CCn1cncc1[C@@H]1CCCCN1C(=O)Nc1cccc(OC)n1 | -8 | 1.61
72 | CCc1nc(C(C)N2CCOC(C(=O)OC)C2)oc1-c1ccccc1 (stereo not drawn) | -4 | 0.53
73 | O=C(c1ccc2c(c1)OCO2)N(C(=O)N1CCCCC1)c1ccccc1 | -8 | 1.28
74 | N#Cc1ccccc1-c1ccccc1C(=O)Nc1cc2c(=O)[nH]cnc2cc1F | -10 | 1.51
75 | CC1CCN(CC(=O)Nc2ncc(Cc3cccc4ccccc34)s2)CC1 | 1 | -0.09
76 | O=C(c1ccccc1)c1conc1C(=O)c1ccc(Br)cc1 | 7 | -1.04
77 | CCC(CC)(CNC(=O)[C@@H]1COc2cc(F)ccc2C1)C(=O)O | -4 | 0.5
78 | COCCNC(=O)[C@H](C)NC(=O)[C@H]1CC[C@H](CNS(=O)(=O)c2ccc(F)cc2)CC1 | -10 | 1.09
79 | Cn1cccc1CN1CCC(CC2CC2)(c2noc(C3CCOCC3)n2)CC1 | -14 | 1.78
80 | O=C(NCc1cccnc1)NCc1nccnc1-c1ccco1 | 13 | -1.69
81 | Cc1cc(C(=O)N2CCC[C@@H]2Cc2noc(C3CCCC3)n2)n(C)n1 | -12 | 1.56
82 | Cc1ncc(C(=O)N2CCN(C(=O)c3cnc(C)s3)[C@@H](C)C2)s1 | -11 | 1.6
83 | C[C@@H](C1CCN(C(=O)c2cc(F)cc(Cl)c2)CC1)N1CCCC1 | -17 | 1.72
84 | O=C(NCc1ccccn1)c1cn(-c2ccc(S(=O)(=O)N3CCCC3)cn2)cn1 | -15 | 2.3

Reference: ChEMBL document CHEMBL4888484, “Replenishing the malaria drug discovery pipeline: Screening and hit evaluation of the MMV Hit Generation Library 1 (HGL1) against asexual blood stage Plasmodium falciparum ,using a nano luciferase reporter read-out” (2022)
